{"source": "PubChem BioAssay (Tox21)", "note": "Several values for one entry are separate records, joined by “and”; a condition that tells them apart may be missing. Equal values may be shown once. Inconclusive results, whose numbers are uncertain, are shown with a selection of clear calls. A potency beside an inconclusive call is a rough fit, not a confirmed value. Activity calls are given as the source filed them. Calls come from the whole dose curve; as a rule, active = well fitted inhibition curve with a large enough effect in the repeat runs; inconclusive = weak or mixed curves; inactive = no such curve, though single readings can be large or run the other way. Peptide text beside a SMILES is read from it. Potency is the fitted concentration of half-maximal effect; tags give direction and shape of the fitted curve."}
{"target": "Cytochrome P450 1A2 (Homo sapiens) (UniProt P05177)", "sequence (P05177 whole entry, looked up)": "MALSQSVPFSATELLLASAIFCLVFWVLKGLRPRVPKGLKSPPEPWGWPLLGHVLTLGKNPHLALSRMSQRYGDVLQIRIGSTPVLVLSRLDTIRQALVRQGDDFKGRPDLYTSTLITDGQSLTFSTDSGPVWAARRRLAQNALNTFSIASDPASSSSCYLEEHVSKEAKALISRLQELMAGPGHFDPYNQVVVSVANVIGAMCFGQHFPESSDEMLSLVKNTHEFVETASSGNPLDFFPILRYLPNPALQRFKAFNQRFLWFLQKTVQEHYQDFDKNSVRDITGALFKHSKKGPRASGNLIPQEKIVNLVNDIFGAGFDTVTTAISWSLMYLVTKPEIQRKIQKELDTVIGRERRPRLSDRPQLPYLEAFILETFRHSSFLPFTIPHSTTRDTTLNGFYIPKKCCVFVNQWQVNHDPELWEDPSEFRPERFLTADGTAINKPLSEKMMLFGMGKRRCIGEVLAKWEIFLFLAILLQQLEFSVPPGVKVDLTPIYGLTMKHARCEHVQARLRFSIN", "experiment": "Cytochrome P450 Family 1 Subfamily A Member 2 (CYP1A2) small molecule antagonists: luciferase reporter qHTS assay (AID 1671199); note: nearly all actives have a fitted effect of over 50% in size", "settings": "P450-Glo CYP1A2 enzyme, luciferin luminescence, 1 h; series mostly up to 115 µM", "method_in_brief": "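Compounds were incubated with CYP1A2 and a luminogenic proluciferin substrate for 10 min at room temperature before the reaction was started with NADPH regeneration solution. After 1 h, detection reagent was added and light output, proportional to CYP activity, was recorded.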"}
{"smiles": "CCCCCCCCCCn1cc[n+](CCCCCCCCCC)c1C", "Potency": "active: 71.1 µM"}
{"smiles": "Cc1oncc1C(=O)Nc1ccc(C(F)(F)F)cc1", "Potency": "active: 1.59 µM and active: 911 nM"}
{"smiles": "Cc1ccc2nc(-c3ccc(N)cc3)sc2c1S(=O)(=O)O", "Potency": "inconclusive: 27.8 µM [inhibitor]"}
{"smiles": "CCCCCCCCCCCCCC[P+](CCCC)(CCCC)CCCC", "note": "(tested in a mixture with another compound)", "Potency": "inconclusive: 12.7 µM [inhibitor, partial curve, poor fit]"}
{"smiles": "c1ccc2n[nH]nc2c1", "Potency": "inconclusive: 39.9 µM [inhibitor, partial curve]"}
{"smiles": "O=C1OC2(c3ccccc31)c1cc(Br)c(O)c(Br)c1Oc1c2cc(Br)c(O)c1Br", "Potency": "inconclusive: 9.08 µM [inhibitor, partial curve] and inconclusive: 17.4 µM [inhibitor, partial curve]"}
{"smiles": "CN(C)CCOc1ccc(/C(=C(/CCCl)c2ccccc2)c2ccccc2)cc1", "Potency": "inconclusive: 26.5 µM [inhibitor, partial curve]"}
{"smiles": "CC[C@H](c1ccc(O)cc1)[C@@H](CC)c1ccc(O)cc1", "Potency": "inconclusive: 79.6 µM [inhibitor, partial curve, poor fit]"}
{"smiles": "Cc1cc(Cc2ccc(N)c(C)c2)ccc1N", "Potency": "active: 6.33 µM and active: 14.2 µM"}
{"smiles": "CCOC(=O)C1=C(C)NC(C)=C(C(=O)OCC)C1c1ccccc1/C=C/C(=O)OC(C)(C)C", "Potency": "inconclusive: 24.5 µM [inhibitor, partial curve]"}
{"smiles": "COC(=O)[C@H](Cc1ccccc1)NC(=O)[C@@H](N)CC(=O)O", "note": "(H-Asp-Phe-OMe)", "Potency": "inconclusive: 38 µM [inhibitor, partial curve]"}
{"smiles": "Cc1cc(C(C)(C)C)c(O)c(C(C)(C)C)c1", "Potency": "inconclusive: 63.5 µM [inhibitor, partial curve, poor fit] and inconclusive: 27.5 µM [inhibitor, partial curve]"}
{"smiles": "CCCCCCCC/C=C/CCCCCCCC1=NCCN1CCO", "Potency": "inconclusive: 28.3 µM [inhibitor, partial curve]"}
{"smiles": "CCCC(c1cc(C(C)(C)C)c(O)cc1C)c1cc(C(C)(C)C)c(O)cc1C", "Potency": "inconclusive: 36 µM [inhibitor, partial curve]"}
{"smiles": "COc1ccc(COC(C)=O)cc1", "Potency": "active: 28.8 µM and active: 44.8 µM"}
{"smiles": "CC1=C(CC(=O)O)c2cc(F)ccc2/C1=C\\c1ccc(S(C)=O)cc1", "note": "(configuration not stated)", "Potency": "inconclusive: 11.5 µM [inhibitor, full curve]"}
{"smiles": "CCCCCCCC/C=C\\CCCCCCCC(=O)N(CCO)CCO", "Potency": "inconclusive: 39.8 µM [inhibitor, partial curve]"}
{"smiles": "CN1CCN(CCCN2c3ccccc3Sc3ccc(Cl)cc32)CC1", "Potency": "active: 2.57 µM"}
{"smiles": "CCCCCCO", "Potency": "inconclusive: 39.9 µM [inhibitor, partial curve]"}
{"smiles": "CCC(C)(C)c1ccc(CC(C)CN2C[C@@H](C)O[C@@H](C)C2)cc1", "note": "(some centres not stated)", "Potency": "inconclusive: 24.5 µM [inhibitor, partial curve]"}
{"smiles": "Cc1ccc(-c2cc(C(F)(F)F)nn2-c2ccc(S(N)(=O)=O)cc2)cc1", "Potency": "inconclusive: 39.8 µM [inhibitor, partial curve] and inconclusive: 35.6 µM [inhibitor, partial curve] and inactive"}
{"smiles": "CC(C)OC(=O)C(C)(C)Oc1ccc(C(=O)c2ccc(Cl)cc2)cc1", "Potency": "inconclusive: 11.5 µM [inhibitor, partial curve]"}
{"smiles": "CC(C)(C)NC(=O)[C@@H]1C[C@@H]2CCCC[C@@H]2CN1C[C@@H](O)[C@H](Cc1ccccc1)NC(=O)[C@H](CC(N)=O)NC(=O)c1ccc2ccccc2n1", "Potency": "inconclusive: 64.1 µM [inhibitor, partial curve]"}
{"smiles": "CCCCCCCCCC", "Potency": "inconclusive: 79.6 µM [inhibitor, partial curve, poor fit]"}
{"smiles": "CC(C)(C)NC(=O)[C@H]1CC[C@H]2[C@@H]3CC[C@H]4NC(=O)C=C[C@]4(C)[C@H]3CC[C@]12C", "Potency": "inactive"}
{"smiles": "CC(C)(C)c1cc(/C=C2\\SC(=N)NC2=O)cc(C(C)(C)C)c1O", "Potency": "inconclusive: 35.6 µM [inhibitor, partial curve]"}
{"smiles": "COc1cc([C@@H]2c3cc4c(cc3[C@H](O)[C@H]3COC(=O)[C@H]23)OCO4)cc(OC)c1OC", "Potency": "inconclusive: 38.9 µM [inhibitor, partial curve]"}
